Data as given in the supplement of paper PMC10441789.
Some of the results follow. Antibody binding of pooled human sera (four to six donors per pool; dilution not stated) to peptides of the Trypanosoma cruzi antigen TSSA on microarrays. Quantile-normalised fluorescence in arbitrary units, mean of duplicate arrays; higher = more binding. No active / inactive call. The uninfected pools are read here as the healthy donors of the same country. The strongest signals lie near the top of the scale (about 60,000).

What was measured:
Assay in all cases: antibody binding signal (normalised fluorescence) (arbitrary fluorescence units); higher = stronger serum antibody binding to peptide
[1] = system: pooled sera of chronic Chagas disease patients, Argentina
Description: (§1)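 Microarray of 15-residue peptides over residues 30-55 of Trypanosoma cruzi TSSAII, each with 1 to 10 substitutions at naturally variable positions, probed with one serum pool per country.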

[2] = system: pooled sera of chronic Chagas disease patients, Bolivia
Description: as §1

[3] = system: pooled sera of chronic Chagas disease patients, Brazil
Description: as §1

[4] = system: pooled sera of chronic Chagas disease patients, Colombia
Description: as §1

[5] = system: pooled sera of chronic Chagas disease patients, Mexico
Description: as §1

[6] = system: pooled sera of chronic Chagas disease patients, USA
Description: as §1

[7] = system: pooled sera of uninfected people, Argentina
Description: as §1

[8] = system: pooled sera of uninfected people, Bolivia
Description: as §1

[9] = system: pooled sera of uninfected people, Brazil
Description: as §1

[10] = system: pooled sera of uninfected people, Colombia
Description: as §1

[11] = system: pooled sera of uninfected people, Mexico
Description: as §1

[12] = system: pooled sera of uninfected people, USA
Description: as §1

Sequence	antibody binding signal [1]	antibody binding signal [2]	antibody binding signal [3]	antibody binding signal [4]	antibody binding signal [5]	antibody binding signal [6]	antibody binding signal [7]	antibody binding signal [8]	antibody binding signal [9]	antibody binding signal [10]	antibody binding signal [11]	antibody binding signal [12]
GKEKKPAAGGTPSQP	801	206	275	1560	902	1280	153	91.1	479	98.2	121	255
TDNKTAAGGAPSPPG	239	303	309	4440	419	662	249	250	630	215	254	186
TEKKPAAGETPSPPG	1130	243	4050	391	396	2100	118	283	255	149	224	1410
PPSGTENKPAAGEAP	49800	47100	48200	377	5800	24000	5790	1780	477	570	381	862
PSGTDNKTATGEAPS	20300	38000	44500	282	256	21300	162	487	898	232	137	188
GTDNKAATGGAPSPS	676	371	31600	703	669	1810	282	567	1690	182	217	120
TDKKAAAGGAPSQSG	1130	234	505	5040	618	347	150	111	368	248	117	122
TEKKAAAGGAPSPSG	839	246	263	7780	1200	1660	246	393	351	180	363	302
SGKEKKAATGGAPSQ	4730	266	2400	2880	6390	4910	265	134	102	241	85	96.8
KKTATGETPSQPGAS	709	1330	23200	246	210	4380	374	417	114	153	237	422
STPPSGTDNKTAAGE	41800	41600	45100	1280	17400	25000	918	515	777	217	152	175
TENKPATGGTPSQSG	44700	1590	3340	326	1290	515	430	835	611	265	405	223
KPATGGAPSQSGASS	790	1060	791	161	681	484	300	987	153	139	284	205
KAATGGAPSQPGASS	698	309	7160	247	384	263	348	102	109	103	99.7	113
GTENKTATGGAPSQP	35100	2520	6230	2200	2580	1990	383	418	284	224	525	153
TISTPPSGTEKKPAT	45500	17400	44700	809	36200	8490	1110	757	587	246	242	988
GKDKKTAAGETPSPP	321	251	230	485	564	1220	156	109	90.6	223	91.5	176
KKAAAGGAPSQSGAS	197	238	180	2740	324	258	209	106	120	102	126	187
DKKAAAGGAPSQSGA	1000	277	636	3650	376	486	187	130	325	134	148	172
GKENKTAAGGTPSQS	1270	203	3430	4550	2240	9680	403	83.3	206	122	394	131
TDNKAAAGETPSPSG	259	267	6220	208	210	2060	124	321	153	102	298	2510
PPSGKEKKTAAGEAP	1180	744	2520	1850	2770	3550	481	695	106	313	144	174
TENKAATGEAPSQPG	31400	42400	45300	208	187	29400	268	141	201	114	95.5	191
KAAAGGTPSPPGASS	253	194	164	4670	290	684	158	111	462	179	79.1	129
GTDNKTAAGEAPSPS	194	490	28100	222	252	7680	186	617	1410	158	113	130

Sequence	antibody binding signal [1]	antibody binding signal [2]	antibody binding signal [3]	antibody binding signal [4]	antibody binding signal [5]	antibody binding signal [6]	antibody binding signal [7]	antibody binding signal [8]	antibody binding signal [9]	antibody binding signal [10]	antibody binding signal [11]	antibody binding signal [12]
GTDKKAAAGGAPSPS	201	209	226	4510	494	643	141	171	183	133	132	152
KENKTATGETPSQSG	667	728	5490	719	297	6620	166	247	229	167	225	139
KENKTATGGAPSPPG	315	242	262	648	267	706	292	101	122	102	136	133
STPPSGKDKKAATGG	9640	1020	1400	2960	33800	1250	188	419	108	223	105	126
GKENKPATGETPSQS	38500	17600	35700	5840	8300	31700	853	715	344	150	2040	146
GTENKPAAGETPSQS	48100	4290	21800	1150	2780	4640	334	1630	255	220	185	127
EKKTAAGEAPSQSGA	617	5120	4070	704	558	6460	178	1350	137	1180	249	1160
TPPSGTEKKPAAGGA	38200	20200	38100	1540	31000	8530	2020	948	1930	247	580	1320
STPPSGTDKKAATGG	40700	14200	35800	12300	32400	8210	824	442	196	570	3070	371
ENKTAAGGAPSPPGA	190	2260	381	4730	600	959	261	190	543	168	272	206
ENKTATGETPSPPGA	408	1750	3940	256	201	7460	118	191	180	153	117	464
TPPSGKEKKPATGEA	33200	2960	16100	379	40800	11600	712	1290	142	558	156	469
TEKKTAAGEAPSPSG	649	245	620	728	509	7180	211	198	183	1090	281	258
ISTPPSGKDNKPATG	15500	4360	25700	672	19700	12200	372	1720	172	193	163	221
TPPSGKDNKTAAGGA	1050	325	1530	1980	18400	3010	1060	483	206	247	105	303
DKKPAAGGAPSQPGA	849	1070	7160	4520	329	544	228	215	337	126	159	248
SGTENKPATGGAPSP	50600	29700	36100	655	1660	10200	978	2380	481	269	360	266
NKPAAGETPSQPGAS	1330	10100	41500	342	210	3520	439	1910	543	734	208	1150
GTEKKTAAGEAPSPP	732	395	1050	915	802	7650	149	631	360	1410	153	125
KEKKTATGGTPSQPG	385	254	223	1410	282	1270	347	87.8	130	165	290	99.8
SGKDKKAATGEAPSQ	18200	4960	19000	532	623	17200	332	72.7	99	292	81.3	85.3
PPSGTEKKAATGEAP	28500	34300	25100	593	1680	25100	1020	349	290	574	175	242
GKDNKAATGGAPSQP	872	1210	11200	1600	1970	1840	226	257	89.2	144	71.3	83.9
GKENKTAAGEAPSQP	8390	8330	37200	8110	6620	20800	413	207	130	173	147	150
GTDKKPATGGTPSQS	558	450	2000	5610	1100	1030	306	528	1100	199	692	160
